In publication PMC9911399, “Two distinct binding modes provide the RNA-binding protein RbFox with extraordinary sequence specificity”:
Residue numbers refer to the chain shown, from its start. The list shows a part of the results.

T1: RBFOX1 RRM RbFoxmut (Fox-RRM*) (Homo sapiens, UniProt Q9NWB1 109-208, R118D;E147R;N151S;E152T)
T1 sequence: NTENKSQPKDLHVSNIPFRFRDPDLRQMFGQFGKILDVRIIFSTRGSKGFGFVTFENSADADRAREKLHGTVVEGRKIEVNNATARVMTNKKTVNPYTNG

B1: AUAGCAC (DNA:RNA)
RNA: GGGAGACCGGAAUUCAGAUUGUCCAUAGCACUUAAAUCCCGUCGUAGCCACCA
DNA 1: CAATCTGAATTCCGGTCTCCC
DNA 2: TGGTGGCTACGACGGGATT
B2: AAUCACU (DNA:RNA)
RNA: B1 RNA with U26A, A27U, G28C, C29A, A30C, C31U
DNA 1: CAATCTGAATTCCGGTCTCCC
DNA 2: TGGTGGCTACGACGGGATT
B3: AUCACGA (DNA:RNA)
RNA: B1 RNA with A27C, G28A, A30G, C31A
DNA 1: CAATCTGAATTCCGGTCTCCC
DNA 2: TGGTGGCTACGACGGGATT
B4: ACUUAAC (DNA:RNA)
RNA: B1 RNA with U26C, A27U, G28U, C29A
DNA 1: CAATCTGAATTCCGGTCTCCC
DNA 2: TGGTGGCTACGACGGGATT
B5: CACAUAA (DNA:RNA)
RNA: B1 RNA with A25C, U26A, A27C, G28A, C29U, C31A
DNA 1: CAATCTGAATTCCGGTCTCCC
DNA 2: TGGTGGCTACGACGGGATT
B6: UGAUACC (DNA:RNA)
RNA: B1 RNA with A25U, U26G, G28U, C29A, A30C
DNA 1: CAATCTGAATTCCGGTCTCCC
DNA 2: TGGTGGCTACGACGGGATT
B7: UUUCCUA (DNA:RNA)
RNA: B1 RNA with A25U, A27U, G28C, A30U, C31A
DNA 1: CAATCTGAATTCCGGTCTCCC
DNA 2: TGGTGGCTACGACGGGATT
B8: CUUGCCC (DNA:RNA)
RNA: B1 RNA with A25C, A27U, A30C
DNA 1: CAATCTGAATTCCGGTCTCCC
DNA 2: TGGTGGCTACGACGGGATT
B9: GUCGAUG (DNA:RNA)
RNA: B1 RNA with A25G, A27C, C29A, A30U, C31G
DNA 1: CAATCTGAATTCCGGTCTCCC
DNA 2: TGGTGGCTACGACGGGATT
B10: GCGACAC (DNA:RNA)
RNA: B1 RNA with A25G, U26C, A27G, G28A
DNA 1: CAATCTGAATTCCGGTCTCCC
DNA 2: TGGTGGCTACGACGGGATT
B11: CUGAUAC (DNA:RNA)
RNA: B1 RNA with A25C, A27G, G28A, C29U
DNA 1: CAATCTGAATTCCGGTCTCCC
DNA 2: TGGTGGCTACGACGGGATT
B12: AUCUUGC (DNA:RNA)
RNA: B1 RNA with A27C, G28U, C29U, A30G
DNA 1: CAATCTGAATTCCGGTCTCCC
DNA 2: TGGTGGCTACGACGGGATT
B13: UGGGAGU (DNA:RNA)
RNA: B1 RNA with A25U, U26G, A27G, C29A, A30G, C31U
DNA 1: CAATCTGAATTCCGGTCTCCC
DNA 2: TGGTGGCTACGACGGGATT
B14: UUGUUAG (DNA:RNA)
RNA: B1 RNA with A25U, A27G, G28U, C29U, C31G
DNA 1: CAATCTGAATTCCGGTCTCCC
DNA 2: TGGTGGCTACGACGGGATT
B15: CCGACAG (DNA:RNA)
RNA: B1 RNA with A25C, U26C, A27G, G28A, C31G
DNA 1: CAATCTGAATTCCGGTCTCCC
DNA 2: TGGTGGCTACGACGGGATT
B16: UGAUGGU (DNA:RNA)
RNA: B1 RNA with A25U, U26G, G28U, C29G, A30G, C31U
DNA 1: CAATCTGAATTCCGGTCTCCC
DNA 2: TGGTGGCTACGACGGGATT
B17: GGUUAGC (DNA:RNA)
RNA: B1 RNA with A25G, U26G, A27U, G28U, C29A, A30G
DNA 1: CAATCTGAATTCCGGTCTCCC
DNA 2: TGGTGGCTACGACGGGATT
B18: AUACUAA (DNA:RNA)
RNA: B1 RNA with G28C, C29U, C31A
DNA 1: CAATCTGAATTCCGGTCTCCC
DNA 2: TGGTGGCTACGACGGGATT
B19: UCGCCUC (DNA:RNA)
RNA: B1 RNA with A25U, U26C, A27G, G28C, A30U
DNA 1: CAATCTGAATTCCGGTCTCCC
DNA 2: TGGTGGCTACGACGGGATT
B20: GCUUCGC (DNA:RNA)
RNA: B1 RNA with A25G, U26C, A27U, G28U, A30G
DNA 1: CAATCTGAATTCCGGTCTCCC
DNA 2: TGGTGGCTACGACGGGATT
B21: GAAUUUG (DNA:RNA)
RNA: B1 RNA with A25G, U26A, G28U, C29U, A30U, C31G
DNA 1: CAATCTGAATTCCGGTCTCCC
DNA 2: TGGTGGCTACGACGGGATT
B22: GCCGCUU (DNA:RNA)
RNA: B1 RNA with A25G, U26C, A27C, A30U, C31U
DNA 1: CAATCTGAATTCCGGTCTCCC
DNA 2: TGGTGGCTACGACGGGATT
B23: CGUGACG (DNA:RNA)
RNA: B1 RNA with A25C, U26G, A27U, C29A, A30C, C31G
DNA 1: CAATCTGAATTCCGGTCTCCC
DNA 2: TGGTGGCTACGACGGGATT
B24: AAGGAUA (DNA:RNA)
RNA: B1 RNA with U26A, A27G, C29A, A30U, C31A
DNA 1: CAATCTGAATTCCGGTCTCCC
DNA 2: TGGTGGCTACGACGGGATT
B25: GUUUUUA (DNA:RNA)
RNA: B1 RNA with A25G, A27U, G28U, C29U, A30U, C31A
DNA 1: CAATCTGAATTCCGGTCTCCC
DNA 2: TGGTGGCTACGACGGGATT
B26: GUGAUGC (DNA:RNA)
RNA: B1 RNA with A25G, A27G, G28A, C29U, A30G
DNA 1: CAATCTGAATTCCGGTCTCCC
DNA 2: TGGTGGCTACGACGGGATT
B27: AUAGGAG (DNA:RNA)
RNA: B1 RNA with C29G, C31G
DNA 1: CAATCTGAATTCCGGTCTCCC
DNA 2: TGGTGGCTACGACGGGATT
B28: UUGUACC (DNA:RNA)
RNA: B1 RNA with A25U, A27G, G28U, C29A, A30C
DNA 1: CAATCTGAATTCCGGTCTCCC
DNA 2: TGGTGGCTACGACGGGATT
B29: UCAGAUG (DNA:RNA)
RNA: B1 RNA with A25U, U26C, C29A, A30U, C31G
DNA 1: CAATCTGAATTCCGGTCTCCC
DNA 2: TGGTGGCTACGACGGGATT
B30: UAGAUCA (DNA:RNA)
RNA: GGGAGACCGGAAUUCAGAUUGUCCUAGAUCAUUAAAUCCCGUCGUAGCCACCA
DNA 1: CAATCTGAATTCCGGTCTCCC
DNA 2: TGGTGGCTACGACGGGATT
B31: GUAGUCA (DNA:RNA)
RNA: B1 RNA with A25G, C29U, A30C, C31A
DNA 1: CAATCTGAATTCCGGTCTCCC
DNA 2: TGGTGGCTACGACGGGATT

molecular target: T1, RBFOX1 RRM RbFoxmut (Fox-RRM*); experiment: EMSA; HiTS-Eq, 1 nM pool, 10 min; buffer printed only for the single-RNA assays: 10 mM Tris pH 7.5, 150 mM NaCl, 3.4 mM EDTA, 0.001% NP-40, 30 C; details: tags: His6 N-terminal (pET28a); label: 5' 32P
Outline: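 Relative association constants, normalised to the cognate motif, were derived by comparing read counts of each RNA species with those of the control reaction. The RNA sequenced was the free fraction, separated by 8% native PAGE after a 10 min equilibration in 50 µL of 1 nM 5′-radiolabelled RNA (7 randomized nucleotides) with increasing concentrations of purified wild-type or mutant RbFox RRM.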

| Binder | binding signal |
| --- | --- |
| B1 | 0.0971 KA relative to UGCAUGU |
| B2 | 0.041 KA relative to UGCAUGU |
| B3 | 0.062 KA relative to UGCAUGU |
| B4 | 0.106 KA relative to UGCAUGU |
| B5 | 0.151 KA relative to UGCAUGU |
| B6 | 0.103 KA relative to UGCAUGU |
| B7 | 0.104 KA relative to UGCAUGU |
| B8 | 0.0659 KA relative to UGCAUGU |
| B9 | 0.141 KA relative to UGCAUGU |
| B10 | 0.0564 KA relative to UGCAUGU |
| B11 | 0.0949 KA relative to UGCAUGU |
| B12 | 0.134 KA relative to UGCAUGU |
| B13 | 0.191 KA relative to UGCAUGU |
| B14 | 0.198 KA relative to UGCAUGU |
| B15 | 0.0446 KA relative to UGCAUGU |
| B16 | 0.0958 KA relative to UGCAUGU |

| Binder | binding signal |
| --- | --- |
| B17 | 0.0919 KA relative to UGCAUGU |
| B18 | 0.114 KA relative to UGCAUGU |
| B19 | 0.0842 KA relative to UGCAUGU |
| B20 | 0.125 KA relative to UGCAUGU |
| B21 | 0.0973 KA relative to UGCAUGU |
| B22 | 0.0743 KA relative to UGCAUGU |
| B23 | 0.111 KA relative to UGCAUGU |
| B24 | 0.0765 KA relative to UGCAUGU |
| B25 | 0.0943 KA relative to UGCAUGU |
| B26 | 0.168 KA relative to UGCAUGU |
| B27 | 0.097 KA relative to UGCAUGU |
| B28 | 0.134 KA relative to UGCAUGU |
| B29 | 0.117 KA relative to UGCAUGU |
| B30 | 0.0575 KA relative to UGCAUGU |
| B31 | 0.148 KA relative to UGCAUGU |
